Molecular target: EGFR T790M/L858R kinase (Homo sapiens, UniProt P00533, L858R/T790M)

C=CC(=O)Nc1cc(Nc2ncc(F)c(-c3cnn(C)c3)n2)c(OC)cc1N1CCC(N(C)C)CC1 [the free base of compound of formula X, N-(2-(4-(dimethylamino)piperidin-1-yl)-5-(5-fluoro-4-(1-methyl-1H-pyrazol-4-yl)pyrimidin-2-ylamino)-4-methoxyphenyl)acrylamide]
inhibitory activities against EGFR mutant enzyme (T790M/L858R), in words: strong inhibitory activities
